From PMC12589908 come the findings set out here.

Protein sequences, listed by entry. Tags and fused reporters are not part of them. Lines headed by an entry give the natural chain unless they say otherwise; changes in a name come on top. Chains listed by the source or under a name are the forms on record and can include a tag or linker.
UniProt P02795: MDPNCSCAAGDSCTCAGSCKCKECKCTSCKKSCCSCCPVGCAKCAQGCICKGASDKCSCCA
PKL (P30613-2, form named): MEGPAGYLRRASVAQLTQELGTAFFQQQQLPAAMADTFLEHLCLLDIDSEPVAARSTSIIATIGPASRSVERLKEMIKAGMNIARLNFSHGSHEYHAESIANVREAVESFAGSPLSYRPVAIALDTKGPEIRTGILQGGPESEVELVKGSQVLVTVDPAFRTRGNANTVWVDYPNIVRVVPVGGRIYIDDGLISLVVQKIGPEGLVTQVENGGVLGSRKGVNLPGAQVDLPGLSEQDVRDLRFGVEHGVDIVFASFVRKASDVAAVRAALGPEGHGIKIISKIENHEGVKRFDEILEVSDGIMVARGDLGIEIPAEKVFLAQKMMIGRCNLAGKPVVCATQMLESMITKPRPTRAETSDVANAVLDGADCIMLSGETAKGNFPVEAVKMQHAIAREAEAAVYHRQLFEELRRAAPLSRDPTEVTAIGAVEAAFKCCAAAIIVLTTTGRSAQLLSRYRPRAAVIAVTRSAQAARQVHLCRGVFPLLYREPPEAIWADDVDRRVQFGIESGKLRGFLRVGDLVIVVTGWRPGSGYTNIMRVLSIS
UniProt P14618: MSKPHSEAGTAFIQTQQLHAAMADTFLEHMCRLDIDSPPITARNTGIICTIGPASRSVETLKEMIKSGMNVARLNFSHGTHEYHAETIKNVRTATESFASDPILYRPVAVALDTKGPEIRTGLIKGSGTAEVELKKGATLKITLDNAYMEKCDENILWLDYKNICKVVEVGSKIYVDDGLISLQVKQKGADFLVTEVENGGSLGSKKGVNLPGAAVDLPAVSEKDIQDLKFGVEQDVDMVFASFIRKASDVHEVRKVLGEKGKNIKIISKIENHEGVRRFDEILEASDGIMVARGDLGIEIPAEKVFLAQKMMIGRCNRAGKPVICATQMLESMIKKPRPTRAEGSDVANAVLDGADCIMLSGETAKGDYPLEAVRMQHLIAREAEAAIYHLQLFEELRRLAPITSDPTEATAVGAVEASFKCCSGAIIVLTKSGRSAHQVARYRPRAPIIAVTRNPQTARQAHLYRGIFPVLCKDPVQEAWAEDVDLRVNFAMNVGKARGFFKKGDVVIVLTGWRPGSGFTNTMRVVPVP
PKM1 (P14618-2, form named): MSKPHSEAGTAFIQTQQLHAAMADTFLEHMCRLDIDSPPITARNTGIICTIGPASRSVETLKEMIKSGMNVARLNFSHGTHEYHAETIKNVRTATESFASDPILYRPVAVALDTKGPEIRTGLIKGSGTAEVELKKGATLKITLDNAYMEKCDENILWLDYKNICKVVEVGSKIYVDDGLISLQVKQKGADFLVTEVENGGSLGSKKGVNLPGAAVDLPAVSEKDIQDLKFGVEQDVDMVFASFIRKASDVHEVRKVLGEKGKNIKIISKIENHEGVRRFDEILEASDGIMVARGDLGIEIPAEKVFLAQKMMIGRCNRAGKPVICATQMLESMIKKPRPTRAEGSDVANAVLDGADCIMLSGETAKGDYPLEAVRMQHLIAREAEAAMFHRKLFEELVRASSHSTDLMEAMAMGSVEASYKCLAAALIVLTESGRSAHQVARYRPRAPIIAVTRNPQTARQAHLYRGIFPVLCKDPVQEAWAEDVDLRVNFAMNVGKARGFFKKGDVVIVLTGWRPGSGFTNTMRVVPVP

Results are given in words; binding and its absence hold for the method and conditions named. Binding seen in cells or lysates may run through a third protein. Some results given as binding are weak or reduced against the parent protein; the word gives no strength.

Experiment [1] deals with HA-MT2A (metallothionein-2A), stably expressed in T47D (UniProt P02795). Nature of the experiment: co-IP; T47D cells stably expressing HA-MT2; hypoxia (1% O2 for 24 h) or normoxia; EBC lysis buffer, washes with NETN buffer, immunoblot.
Experiment [2] concerns the target HA-MT2A (metallothionein-2A) (UniProt P02795). Nature of the experiment: co-IP; 293T cells transiently transfected with HA-MT2A (or point mutants) and PKM2-Flag (or point mutants); hypoxia (1% O2 for 24 h) or normoxia; EBC lysis buffer, washes with NETN buffer, immunoblot. (In western blotting, separated proteins are transferred to a membrane and probed.)

Take “PKL (from UniProt P30613-2 1-543) (enzyme)”: the binding result in experiment [1] is on record as “no binding”.

As for “PKM1 (from UniProt P14618-2 1-531) (enzyme)”, in experiment [1], the binding result is “no binding”.

Regarding “PKM2-Flag (pyruvate kinase M2) (from UniProt P14618 1-531) (enzyme)”, the binding entry in experiment [2] is on record as “binds”. As for “PKM2-K422R-FLAG (from UniProt P14618 1-531) (enzyme)”, the binding entry in experiment [2] is recorded as “binds”. Take “Pyruvate kinase M2 (PKM2) of T47D cells (from UniProt P14618 1-531) (enzyme)”: the binding result in experiment [1] is listed as “binds”.
